# From the supplement of paper PMC3334620
# In all, about 33,000 sequences were measured (“E-score (-0.5 to 0.5)”: median about -0.053, highest 2% from about 0.37 on). Some of the results follow.
# Target: Hap1 (UniProt P0CE41)
# Assay: PBM E-score (8-mer binding enrichment) (E-score (-0.5 to 0.5)); higher = stronger / more preferred TF binding; most listed sequences are background and not binding sites
# Conditions: protein concentration: 200 nM; construct: GST-DNA-binding domain
# Experimental: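 Universal 'all 10-mer' protein binding microarrays (Agilent AMADID 015681) probed with GST-tagged S. cerevisiae TFs (full-length or DBD) made by in vitro transcription/translation (PURExpress), about 100-200 nM. Bound TF was detected with fluorescent anti-GST. Each ungapped 8-mer (which stands for itself and its reverse complement) is scored by the PBM enrichment score (E-score), a modified Wilcoxon-Mann-Whitney statistic from -0.5 to +0.5, computed with the Universal PBM Analysis Suite. Scale: above 0.35 generally sequence-specific binding.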
# Sequence of UniProt P0CE41 (P0CE41 whole entry): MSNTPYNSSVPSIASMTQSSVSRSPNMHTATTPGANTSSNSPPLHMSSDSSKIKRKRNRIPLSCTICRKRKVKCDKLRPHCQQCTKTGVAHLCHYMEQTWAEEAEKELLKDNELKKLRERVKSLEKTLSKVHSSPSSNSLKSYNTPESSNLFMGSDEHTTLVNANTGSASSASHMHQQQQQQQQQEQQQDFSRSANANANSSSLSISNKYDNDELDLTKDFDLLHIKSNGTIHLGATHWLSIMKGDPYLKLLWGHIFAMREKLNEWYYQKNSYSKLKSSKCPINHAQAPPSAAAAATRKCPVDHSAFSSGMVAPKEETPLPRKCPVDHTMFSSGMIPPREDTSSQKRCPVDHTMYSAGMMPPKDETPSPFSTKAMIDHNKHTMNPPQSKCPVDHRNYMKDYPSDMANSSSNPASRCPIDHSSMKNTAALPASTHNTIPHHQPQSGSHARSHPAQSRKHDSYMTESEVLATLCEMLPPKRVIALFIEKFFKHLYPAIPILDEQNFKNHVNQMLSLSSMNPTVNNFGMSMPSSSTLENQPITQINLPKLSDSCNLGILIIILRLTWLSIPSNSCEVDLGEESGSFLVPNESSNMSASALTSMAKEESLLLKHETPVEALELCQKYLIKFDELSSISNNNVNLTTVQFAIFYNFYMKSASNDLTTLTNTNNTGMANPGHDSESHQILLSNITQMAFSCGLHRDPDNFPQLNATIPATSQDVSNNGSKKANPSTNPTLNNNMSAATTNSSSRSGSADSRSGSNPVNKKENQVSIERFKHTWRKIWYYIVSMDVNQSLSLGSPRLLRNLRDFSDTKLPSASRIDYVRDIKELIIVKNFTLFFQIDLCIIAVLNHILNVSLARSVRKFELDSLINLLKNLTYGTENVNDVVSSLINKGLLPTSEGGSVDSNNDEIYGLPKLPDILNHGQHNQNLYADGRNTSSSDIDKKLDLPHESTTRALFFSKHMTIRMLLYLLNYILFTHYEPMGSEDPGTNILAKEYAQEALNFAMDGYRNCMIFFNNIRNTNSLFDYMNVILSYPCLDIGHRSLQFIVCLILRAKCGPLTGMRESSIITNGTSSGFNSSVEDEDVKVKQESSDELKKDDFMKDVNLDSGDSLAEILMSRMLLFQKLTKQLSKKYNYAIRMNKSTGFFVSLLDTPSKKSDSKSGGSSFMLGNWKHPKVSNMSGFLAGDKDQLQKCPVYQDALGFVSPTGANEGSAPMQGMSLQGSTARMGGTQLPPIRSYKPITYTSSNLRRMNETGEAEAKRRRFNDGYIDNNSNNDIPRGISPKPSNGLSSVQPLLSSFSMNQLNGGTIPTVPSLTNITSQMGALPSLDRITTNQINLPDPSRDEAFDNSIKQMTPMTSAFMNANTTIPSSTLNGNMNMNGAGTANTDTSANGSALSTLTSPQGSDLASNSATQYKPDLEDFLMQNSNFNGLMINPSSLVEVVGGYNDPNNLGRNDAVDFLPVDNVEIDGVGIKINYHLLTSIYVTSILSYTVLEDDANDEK
row,Sequence,PBM E-score
1,CGTAGCTC,0.109
2,CATTTAAG,-0.223
3,TCGATTCA,-0.0308
4,CCTCATCA,-0.169
5,GTTACAGA,-0.214
6,ATCTCTCG,0.142
7,CCCACGCC,-0.103
8,ATACGAAT,-0.192
9,GTGACTTA,-0.171
10,ACGCCTGA,-0.116
11,CATTTGGC,-0.132
12,TATGCGCA,-0.0822
13,AAGGTAAG,-0.173
14,ATGACTTC,-0.0257
15,CGCAAGCC,0.0291
16,ACTTTCCT,-0.131
17,GACGGCAA,0.0858
18,CGTCGAGC,-0.122
19,TAACCCAA,-0.0641
20,TCATGGCA,-0.0941
21,CCCAATTC,-0.135
22,AGTAAGGA,-0.246
23,GGCAGGGA,-0.172
24,ACGCGACC,-0.094
25,CAATCGCG,0.115

row,Sequence,PBM E-score
1,AAGGTTAT,0.0892
2,AACCGAGT,0.157
3,CAAAGCTG,-0.0916
4,CCTGCGTA,-0.124
5,AACTGTTA,0.0162
6,AGTAGTAC,0.105
7,CAATAAGC,0.0423
8,ATATGAGC,-0.0439
9,GGCATACC,0.107
10,AGTGCGTG,-0.165
11,GACCGAAC,0.347
12,ATGAGACA,-0.0994
13,GCATCGCC,0.0583
14,GGCAAAGA,0.0812
15,ACACGTCG,0.00541
16,GAGTGGCC,0.144
17,AATGGTTC,-0.00195
18,AGCAGTCC,0.0132
19,CGCGCTGA,-0.0292
20,GACATTCA,0.113
21,ATAGATAC,-0.117
22,CCGTATGA,0.115
23,GTACACGA,-0.116
24,TTACTGAA,-0.162
25,TCTGCTCA,-0.356

row,Sequence,PBM E-score
1,CAAAAGGG,-0.161
2,CGCCTTAC,-0.112
3,GAAAAGAC,0.0224
4,CTAAGACA,-0.168
5,GACAAATC,0.077
6,GAAAAAAA,0.025
7,CCGGTTTC,0.317
8,AGGCCCTG,-0.219
9,CGGTTTTA,0.433
10,ACCATGTC,-0.0848
11,CATTCCCC,0.185
12,GCGTGACA,-0.104
13,CTGCTATA,0.0322
14,CCTAAGCA,-0.192
15,GCGCTGCC,-0.0134
16,GAAATGCA,0.125
17,CAATCGAG,-0.32
18,GGTAATTA,0.286
19,GACATGAC,-0.146
20,CCGAATTC,0.342
21,AAGCTCTA,-0.14
22,ATCACGGG,-0.00611
23,CGACGGCA,0.0843
24,GGAAGTAA,0.299
25,CGCTGGAA,0.0856

row,Sequence,PBM E-score
1,GATTTACA,0.044
2,AGTTTTTG,-0.0198
3,GCACCGAC,0.335
4,CACTACGA,-0.0719
5,GAAGCTGA,0.0793
6,AGATAACG,0.345
7,GGATTAGA,0.137
8,GGCAGGAC,0.0548
9,GCCTCCCA,-0.176
10,GAACGACA,-0.211
11,CATAATGC,0.091
12,CACTGTAC,-0.238
13,ACGTTGCT,-0.184
14,AACCCGCG,0.211
15,CATAGCAC,-0.0374
16,AACATGTG,-0.0547
17,CGGTGACA,0.209
18,CCCCGACG,0.379
19,CTAAACAG,-0.169
20,CTAGACGC,-0.263
21,CTAAAGAG,-0.201
22,ATTACTTA,0.122
23,CTTATTTC,0.122
24,CGTTACCA,-0.159
25,CCGTACCA,0.235

row,Sequence,PBM E-score
1,GTCATAAC,0.0512
2,CATTTAAA,0.0482
3,CCACCGGG,0.34
4,CCGGTTTA,0.258
5,AGGCCAGA,-0.0351
6,AAAAGTGC,0.00388
7,GAATCATA,-0.0958
8,CATCACTA,-0.201
9,CCAACGAA,-0.105
10,CTGAACCC,-0.114
11,AAGTAACC,-0.0991
12,GCGACAAC,0.0655
13,GAATTCTA,-0.0266
14,GTACTCCA,-0.112
15,GAAGTTCC,0.0636
16,TAGACCGA,0.282
17,CCTCATTC,-0.138
18,GCCTAATA,0.0381
19,ATGCGTCA,-0.125
20,ATCGTATG,-0.252
21,CTATAAAA,-0.0303
22,CACGACAC,-0.0689
23,CCACAAGA,-0.151
24,CCGGCGGC,0.364
25,ATAGCATG,-0.19

row,Sequence,PBM E-score
1,GGATAAAA,0.261
2,AGACACAC,-0.237
3,CGAACCCC,0.24
4,ATGTTGTC,-0.101
5,AGGTGCGC,-0.0927
6,CGGATTAA,0.365
7,CGCGTATA,0.0454
8,GTCCGAAC,0.426
9,AGGGGCAC,-0.243
10,CACAAACG,0.0846
11,CCGTGGAC,0.229
12,AGTGGACA,-0.0297
13,CGGGATAA,0.263
14,AGTTCAGG,-0.191
15,CACTAGAA,-0.0422
16,CGAATTTC,0.137
17,CACCTCCG,0.311
18,ATCTAGCG,0.00616
19,CCTTTGGC,-0.24
20,AACAACTA,-0.0145
21,TCCAGCGA,0.0435
22,CGAGGAGC,0.0181
23,GCAACTAC,-0.0604
24,CACGGGCC,0.289
25,GCTAGCCA,-0.144

row,Sequence,PBM E-score
1,CACGACTA,-0.32
2,CTCTATGC,-0.197
3,GTTACCGA,0.218
4,TAGAACAA,-0.273
5,CGTTGGTC,-0.0912
6,CCTTTCGC,0.0401
7,CACCGTAG,0.0891
8,ACTCCTAT,-0.141
9,CGCCCGCG,0.263
10,CGGGTACA,0.202
11,ACGAGCAC,-0.0683
12,ACCTTCAA,-0.293
13,CCATCTCA,-0.373
14,CAAGTCGC,-0.282
15,AGAAATTG,0.00463
16,CTACTCTC,0.0553
17,CCATCGCA,-0.199
18,GGCCTATA,0.0312
19,AATTTTAG,-0.294
20,AGTGCGGC,0.0776
21,ATACGCTC,0.0673
22,GCCAAGCA,-0.159
23,ATAGCCCC,0.134
24,CCATCAAA,-0.17
25,CAGATCAA,-0.138

row,Sequence,PBM E-score
1,GTATCATA,0.0287
2,ACGTCAGA,-0.342
3,CGGTGAAG,0.0684
4,AAGCCTTC,-0.0806
5,CTGGACTC,-0.113
6,AGTGGGAT,-0.0762
7,CCTTCCCA,-0.242
8,AAGACCCA,-0.277
9,CTAATACA,-0.0391
10,AAATAACA,-0.00712
11,GCACACGC,-0.208
12,CCAGAAGC,0.0652
13,TAATCTAA,-0.0545
14,GATACGGC,0.00586
15,GAGTAATA,0.0813
16,ACATTACT,-0.176
17,CCATTAAC,-0.0448
18,AGACTCTC,-0.148
19,TCGTGGAA,-0.0409
20,AAGAAGCC,0.198
21,CGAGATTA,0.16
22,CTTCACAC,-0.217
23,AGGTTCAA,-0.0501
24,ATAGTAGG,-0.0329
25,GGGCGGAC,0.279

row,Sequence,PBM E-score
1,TACCTAAA,-0.182
2,CTGTGCGC,0.00713
3,GTTGAAAC,0.007
4,TGGCACAA,-0.214
5,ATAACTGA,-0.0311
6,CATCTGCG,0.0667
7,AGTTGAAA,-0.0683
8,CGTTTTGA,-0.114
9,ATATGTGA,-0.237
10,CCCTCTCC,-0.286
11,CCGACAAG,0.282
12,CCAGTGGA,-0.164
13,AGATGCGA,0.0962
14,CTCCGGGA,0.392
15,CCAAGAGA,-0.24
16,AAGCGAGA,0.173
17,ACCTCGGA,0.384
18,GCGGCACA,0.0226
19,GACCCGGC,0.209
